Here are results for 45 compounds from article PMC11995724, “Antibiotic target discovery by integrated phenotypic and activity-based profiling of electrophilic fragments” (Cell chemical biology, 2025).

About 75 (2%) of roughly 3,200 compounds showed an effect of 50% or more. The list shows a part of the results.

The test has as its system T1, S. aureus MSSA476.
T1 construct: MSSA476
Also noted: species or system S. aureus MSSA476 (TSB) or V. cholerae SAD30 (LB); 384-well bacterial growth screen at 25 uM, OD600 relative to DMSO control. The settings on record: relative growth, OD600, TSB; 25 µM; inhibitor.
Take `N#CCCN(C(=O)CCl)c1cccc(Cl)c1` [6-A17, 2-chloro-N-(3-chlorophenyl)-N-(2-cyanoethyl)acetamide]: the “% of control remaining” value turned out to be 89.4634%. As for `C=CC(=O)NCCC(=O)N1CCN(c2ccc(C#N)cc2F)CC1` [3-D07, N-{3-[4-(4-cyano-2-fluorophenyl)piperazin-1-yl]-3-oxopropyl}prop-2-enamide], the “% of control remaining” value is listed as 99.9565%. The value for `C=CC(=O)N1CCC(C(=O)N2CCc3ccccc32)CC1` [1-E09, 1-[4-(2,3-dihydro-1H-indole-1-carbonyl)piperidin-1-yl]prop-2-en-1-one] was 90.7253%; that for `C=CC(=O)NC(c1ccccc1)C1CCC1` (stereo not drawn) [1-G05, N-[cyclobutyl(phenyl)methyl]prop-2-enamide] was 71.3846%. As for `CC(Cl)C(=O)NC1CC=CCC1` (stereo not drawn) [6-K21, 2-chloro-N-(cyclohex-3-en-1-yl)propanamide], the “% of control remaining” value amounted to 90.4878%. The value for `CC(Cl)C(=O)N1C2CCC1CC1(C2)CC1(F)F` (stereo not drawn) [6-N18, 2-chloro-1-{2',2'-difluoro-8-azaspiro[bicyclo[3.2.1]octane-3,1'-cyclopropan]-8-yl}propan-1-one] was 87.4146%; that for `CC(C)Oc1ccccc1C=C(C#N)C(=O)Nc1cccc(Cl)c1` [9-P20, N-(3-chlorophenyl)-2-cyano-3-[2-(propan-2-yloxy)phenyl]prop-2-enamide] was 97.0787%. The value for `COc1ccc(S(=O)(=O)N(C)C)cc1NC(=O)CCl` [4-E05, 2-chloro-N-[5-(dimethylsulfamoyl)-2-methoxyphenyl]acetamide] was 110.148%. For `CC(C)N1C(=O)C[C@H](NC(=O)CCl)[C@H]1c1ccc(Cl)c(F)c1` (racemic) [5-I11, rac-2-chloro-N-[(2R,3S)-2-(4-chloro-3-fluorophenyl)-5-oxo-1-(propan-2-yl)pyrrolidin-3-yl]acetamide] the value was 90.7104%. For `O=C(CCl)N1CC(Cc2ccc(F)cc2F)C1` [5-G20, 2-chloro-1-{3-[(2,4-difluorophenyl)methyl]azetidin-1-yl}ethan-1-one], the “% of control remaining” value stood at 87.0674%.

On to `CN(CCNC(=O)CCl)S(=O)(=O)c1cccs1` [6-H11, 2-chloro-N-[2-(N-methylthiophene-2-sulfonamido)ethyl]acetamide], for which the “% of control remaining” value is 75.4634%. For `Cc1ccccc1NC(=O)C(C#N)=Cc1ccc2c(c1)OCCO2` [8-J03, 2-cyano-3-(2,3-dihydro-1,4-benzodioxin-6-yl)-N-(2-methylphenyl)prop-2-enamide], the “% of control remaining” value is 129.461%. Consider `N#CC(=Cc1ccc(Cl)cc1)C(=O)Nc1ccncc1` [8-K20, 3-(4-chlorophenyl)-2-cyano-N-(pyridin-4-yl)prop-2-enamide], for which the “% of control remaining” value was found to be 95.6017%. For `C=CC(=O)N1CCCC1c1cc(C)no1` (stereo not drawn) [3-G12, 1-[2-(3-methyl-1,2-oxazol-5-yl)pyrrolidin-1-yl]prop-2-en-1-one], the “% of control remaining” value is on record as 91.5977%. In the case of `Cc1ccc(C(=O)CCl)o1` [10-A09, 2-chloro-1-(5-methylfuran-2-yl)ethan-1-one], the “% of control remaining” value is on record as 137.188%. Take `COc1ccc(CNC(=O)CCl)cc1OC` [5-O11, 2-chloro-N-[(3,4-dimethoxyphenyl)methyl]acetamide]: the “% of control remaining” value was 81.6029%. Regarding `CC(Cl)C(=O)N1CCCN2c3ccccc3CC2C1` (stereo not drawn) [7-G06, 1-{1H,2H,3H,4H,5H,11H,11aH-[1,4]diazepino[1,2-a]indol-2-yl}-2-chloropropan-1-one], the “% of control remaining” value was determined as 95.4474%. Regarding `C=CC(=O)Nc1cnc(C2CCCC2)nc1` [1-G17, N-(2-cyclopentylpyrimidin-5-yl)prop-2-enamide], the “% of control remaining” value stood at 114.989%.

In the case of `C=CC(=O)NC1(c2cc(C)no2)CCOCC1` [1-F18, N-[4-(3-methyl-1,2-oxazol-5-yl)oxan-4-yl]prop-2-enamide], the “% of control remaining” value stood at 106.901%. For the compound `Cc1ccc(C)c(Sc2ccc(NC(=O)CCl)cc2)c1` [4-H09, 2-chloro-N-{4-[(2,5-dimethylphenyl)sulfanyl]phenyl}acetamide], the “% of control remaining” value is reported as 116.246%. For the compound `Cc1cc(C=C(C#N)C(=O)Nc2nccs2)cc(C)c1O` [9-D13, 2-cyano-3-(4-hydroxy-3,5-dimethylphenyl)-N-(1,3-thiazol-2-yl)prop-2-enamide], the “% of control remaining” value is 97.9775%. For `C=CC(=O)N(C)CC(=O)N1CCN(c2nsc3ccccc23)CC1` [2-N10, N-{2-[4-(1,2-benzothiazol-3-yl)piperazin-1-yl]-2-oxoethyl}-N-methylprop-2-enamide] the value was 111.053%. For the compound `CC(Cl)C(=O)Nc1ccc(F)c(F)c1F` (stereo not drawn) [4-O08, 2-chloro-N-(2,3,4-trifluorophenyl)propanamide], the “% of control remaining” value is 94.5212%. The value for `O=C(CCl)N1CCN(S(=O)(=O)c2ccc([N+](=O)[O-])cc2)CC1` [4-J07, 2-chloro-1-[4-(4-nitrobenzenesulfonyl)piperazin-1-yl]ethan-1-one] was 127.68%; that for `COc1ccc(S(=O)(=O)N2CCSSCC2)cc1C` [10-D11, 5-(4-methoxy-3-methylbenzenesulfonyl)-1,2,5-dithiazepane] was 107.188%. For the compound `C=CC(=O)N1CCC(C(=O)N2CCCC(C)(CC)C2)CC1` (stereo not drawn) [2-J10, 1-[4-(3-ethyl-3-methylpiperidine-1-carbonyl)piperidin-1-yl]prop-2-en-1-one], the “% of control remaining” value worked out at 96.7798%. For the compound `C=CC(=O)Nc1ccccc1CNS(C)(=O)=O` [3-F16, N-[2-(methanesulfonamidomethyl)phenyl]prop-2-enamide], the “% of control remaining” value was 94.7323%. Regarding `C=CC(=O)NCc1ccc(C(=O)N2CCOC3(CCCC3)C2)cc1` [3-B05, N-[(4-{6-oxa-9-azaspiro[4.5]decane-9-carbonyl}phenyl)methyl]prop-2-enamide], the “% of control remaining” value stood at 94.384%.

In the case of `C=CC(=O)NCCc1nc(C)cs1` [2-D05, N-[2-(4-methyl-1,3-thiazol-2-yl)ethyl]prop-2-enamide], the “% of control remaining” value is given as 103.742%. On to `C=CC(=O)N1CCCC1` [1-G08, 1-(pyrrolidin-1-yl)prop-2-en-1-one], for which the “% of control remaining” value was determined as 116.044%. Regarding `N#CC(=Cc1cc(F)ccc1F)C(=O)NC1CCCCC1` [8-G08, 2-cyano-N-cyclohexyl-3-(2,5-difluorophenyl)prop-2-enamide], the “% of control remaining” value was determined as 64.3983%. Turning to `CN(C)C1=NC(N)=NC(=C(C#N)C(=O)CCl)N1` [10-P20, 2-[4-amino-6-(dimethylamino)-1,2-dihydro-1,3,5-triazin-2-ylidene]-4-chloro-3-oxobutanenitrile], the “% of control remaining” value was found to be 96.25%.

As to `C=CC(=O)NC12CC3CC(CC(C3)C1)C2` [1-E12, N-(adamantan-1-yl)prop-2-enamide], the “% of control remaining” value came out at 103.385%. For `C=CC(=O)Nc1ncnc2c1cnn2Cc1cccc(C)c1` [1-M21, N-{1-[(3-methylphenyl)methyl]-1H-pyrazolo[3,4-d]pyrimidin-4-yl}prop-2-enamide] the value was 98.1099%; for `CCN1C(=O)CC[C@H](CNC(=O)C(C)Cl)[C@H]1c1cnn(C)c1` (mixture of isomers) [6-L13, rac-2-chloro-N-{[(2R,3S)-1-ethyl-2-(1-methyl-1H-pyrazol-4-yl)-6-oxopiperidin-3-yl]methyl}propanamide], 89.122%; for `C=CC(=O)Nc1ccc(-n2cnnn2)c(F)c1` [1-I17, N-[3-fluoro-4-(1H-1,2,3,4-tetrazol-1-yl)phenyl]prop-2-enamide], 115.692%. For `CCc1ccc(OC(C)C(=O)N2CCN(C(=O)C(C)Cl)CC2)cc1` (stereo not drawn) [6-H16, 1-[4-(2-chloropropanoyl)piperazin-1-yl]-2-(4-ethylphenoxy)propan-1-one], the “% of control remaining” value is recorded as 75.122%. As for `Cc1cc(C(=O)CCl)c(C)n1CCc1ccc(Cl)cc1` [10-N16, 2-chloro-1-{1-[2-(4-chlorophenyl)ethyl]-2,5-dimethyl-1H-pyrrol-3-yl}ethan-1-one], the “% of control remaining” value is listed as 5.9375%.

For `C=CC(=O)NCc1cnc(CC(C)C)s1` [1-J10, N-{[2-(2-methylpropyl)-1,3-thiazol-5-yl]methyl}prop-2-enamide], the “% of control remaining” value turned out to be 117.099%. For `C=CC(=O)N1CCCN(S(=O)(=O)c2ccc(OC)cc2)CC1` [3-G10, 1-[4-(4-methoxybenzenesulfonyl)-1,4-diazepan-1-yl]prop-2-en-1-one] the value was 104.484%; for `C=CC(=O)NC1(Cc2nnc3ccccn23)CCCCC1` [2-L03, N-[1-({[1,2,4]triazolo[4,3-a]pyridin-3-yl}methyl)cyclohexyl]prop-2-enamide], 88.7728%. The value for `CCOC(=O)c1ccccc1NC(=O)CCl` [4-B17, ethyl 2-(2-chloroacetamido)benzoate] was 113.959%; that for `Cc1ccc(C=C(C#N)C(=O)Nc2cccc3ccccc23)cc1` [8-M14, 2-cyano-3-(4-methylphenyl)-N-(naphthalen-1-yl)prop-2-enamide] was 74.0249%.

In the case of `C=CCNC(=O)C(C#N)=Cc1ccc(C)s1` [9-F05, 2-cyano-3-(5-methylthiophen-2-yl)-N-(prop-2-en-1-yl)prop-2-enamide], the “% of control remaining” value is 101.273%. Regarding `C=CCNC(=O)C(C#N)=Cc1ccc(C)c(C)c1` [9-D21, 2-cyano-3-(3,4-dimethylphenyl)-N-(prop-2-en-1-yl)prop-2-enamide], the “% of control remaining” value was found to be 99.176%.
